Measured values taken from PubChem BioAssay AID504332 (National Center for Advancing Translational Sciences (NCATS), 2011).
In all, about 350,000 compounds went through this assay and about 31,000 (8.9%) were called active. Inconclusive means that the source gave no clear call. Such entries were picked first, then a sample of the others. Calls follow the shape of the dose curve; as a rule, active = well fitted inhibition curve with a large enough effect; inconclusive = small, poorly fitted or top-dose-only effect; inactive = no such curve, though single readings can be large or run the other way. Potencies beside an inconclusive call are fits to weak or partial responses and may not hold up.

Biological target: Histone-lysine N-methyltransferase EHMT2 (Homo sapiens) (UniProt Q96KQ7)
Experiment: qHTS Assay for Inhibitors of Histone Lysine Methyltransferase G9a; also: nearly all actives have a fitted effect of over 75% in size
Details: G9a H3K9 monomethylation, AlphaScreen, 2 h; activity, negative = inhibition: at 59 µM (top of the series) unless noted
Outline: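 Compounds were preincubated with 20 nM G9a for 15 min, after which biotinylated H3K9 peptide (500 nM) and SAM (20 uM) started a 2 h room-temperature reaction. Monomethylated product was quantified by antibody-based AlphaScreen chemiluminescence.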
% is scaled to controls: 0 for no effect and ±100 for the full control effect; potency is read from the fitted curve at half-maximal effect; tags tell the direction and shape of the fitted curve.

UniProt Q96KQ7, sequence (Q96KQ7 whole entry, looked up): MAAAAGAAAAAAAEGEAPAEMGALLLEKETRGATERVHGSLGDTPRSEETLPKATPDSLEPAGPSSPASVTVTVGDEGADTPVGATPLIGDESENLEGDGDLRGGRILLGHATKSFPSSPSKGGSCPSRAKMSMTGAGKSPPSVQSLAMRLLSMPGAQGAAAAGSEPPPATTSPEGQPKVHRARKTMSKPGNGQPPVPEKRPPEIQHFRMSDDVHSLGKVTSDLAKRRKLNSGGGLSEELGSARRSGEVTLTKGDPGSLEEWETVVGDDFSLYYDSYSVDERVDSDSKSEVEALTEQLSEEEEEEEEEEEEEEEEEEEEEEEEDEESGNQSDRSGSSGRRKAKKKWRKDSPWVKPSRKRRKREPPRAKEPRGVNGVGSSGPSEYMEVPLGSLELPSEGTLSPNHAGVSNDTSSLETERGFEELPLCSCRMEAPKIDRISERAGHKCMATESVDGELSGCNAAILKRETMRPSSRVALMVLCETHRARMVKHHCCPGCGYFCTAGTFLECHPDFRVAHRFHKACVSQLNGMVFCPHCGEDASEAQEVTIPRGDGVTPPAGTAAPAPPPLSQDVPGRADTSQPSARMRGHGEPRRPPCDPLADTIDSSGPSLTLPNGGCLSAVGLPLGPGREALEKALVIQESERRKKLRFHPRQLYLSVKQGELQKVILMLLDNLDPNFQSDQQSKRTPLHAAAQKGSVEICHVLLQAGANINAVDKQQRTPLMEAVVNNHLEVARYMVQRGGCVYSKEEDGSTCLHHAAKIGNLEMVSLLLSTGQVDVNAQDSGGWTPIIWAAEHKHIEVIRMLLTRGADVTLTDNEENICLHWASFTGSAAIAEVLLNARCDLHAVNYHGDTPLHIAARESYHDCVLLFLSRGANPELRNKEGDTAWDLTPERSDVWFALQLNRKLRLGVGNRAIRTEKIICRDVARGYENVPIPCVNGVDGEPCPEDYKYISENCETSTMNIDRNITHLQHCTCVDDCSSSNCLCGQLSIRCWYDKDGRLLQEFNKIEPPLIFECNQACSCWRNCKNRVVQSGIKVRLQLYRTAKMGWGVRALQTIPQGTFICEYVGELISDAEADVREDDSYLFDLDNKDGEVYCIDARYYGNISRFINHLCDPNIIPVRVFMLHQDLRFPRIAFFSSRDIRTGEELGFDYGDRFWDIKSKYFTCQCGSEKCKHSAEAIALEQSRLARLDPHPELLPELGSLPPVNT

| Structure (SMILES) | Potency | activity, negative = inhibition |
| --- | --- | --- |
| CCOC(=O)CSc1nnc(CNC(=O)Cc2ccccc2)n1-c1ccccc1OC | inconclusive: 89.1 µM [inhibitor, single point] | – |
| O=C(c1ccc(F)cc1)N1CCC(c2nc3ccccc3s2)CC1 | inconclusive: 39.8 µM [inhibitor, partial curve, poor fit] | – |
| Cc1cc(C(=O)N/N=C/c2ccc(O)c([N+](=O)[O-])c2)n[nH]1 | inactive | – |
| CC(C)c1ccc(N(CC(=O)NCc2ccco2)C(=O)CCC(=O)Nc2ccccn2)cc1 | active: 25.1 µM | – |
| CCc1nnc(NC(=O)CSc2nnc3c(C)cc4c(C)ccc(C)c4n23)s1 | inconclusive: 79.4 µM [inhibitor, single point] | – |
| O=C(O)CC12CSc3[nH]c(=O)sc3C1c1ccccc1OC2=O (stereo not given) | active: 50.1 µM | – |
| CCCCn1c(N)c(N(CCOC)C(=O)CSCc2c(C)noc2C)c(=O)[nH]c1=O | inactive | – |
| Cc1ccc(C(=O)Nc2ccon2)cc1S(=O)(=O)N1CCOCC1 | inconclusive: 5.62 µM [inhibitor, single point] | – |
| COC(=O)c1sc(N2C(=O)c3oc4ccccc4c(=O)c3C2c2cccs2)nc1C (stereo not given) | active: 14.1 µM | – |
| CSc1nnc(-c2cccn(Cc3cccc(Cl)c3)c2=O)o1 | inactive | – |
| O=C(NCCC(=O)N1CCN(S(=O)(=O)c2ccc(Cl)cc2)CC1)Nc1ccccc1 | active: 50.1 µM | – |
| CCOc1ccc(S(=O)(=O)NCCc2c(C)[nH]c3c(Cl)cccc23)cc1C | inconclusive: 39.8 µM [inhibitor, partial curve, poor fit] | – |
| COc1ccc([N+](=O)[O-])cc1NC(=O)C(C)OC(=O)C1c2ccccc2Oc2ccccc21 (stereo not given) | inactive | – |
| Cc1cc(C(=O)COC(=O)/C=C/c2cccc(F)c2)c(C)n1C | inconclusive: 20 µM [inhibitor, partial curve, poor fit] | – |
| C/C(=N\N1CCN(C2c3ccccc3-c3ccccc32)CC1)c1ccncc1 | – | inactive: 24.2% [at 0.501 µM] |
| COCCCNC(=O)CS(=O)Cc1nc(-c2ccccc2C)oc1C (stereo not given) | inconclusive: 89.1 µM [inhibitor, single point] | – |
| CNC(=S)N(CCc1c(C)[nH]c2ccc(C)cc12)Cc1ccc(OC)c(OC)c1 | active: 50.1 µM | – |
| COc1ccc(NC(=O)Cc2c[nH]c3ccccc23)cc1S(=O)(=O)N1CCCCC1 | inconclusive: 89.1 µM [inhibitor, single point] | – |
| CNc1oc(-c2cccs2)nc1S(=O)(=O)c1ccccc1 | – | inconclusive: -62.7% [inhibitor] |
| O=C(O)c1ccccc1NC(c1ccccc1)c1ccc(Cl)cc1 (stereo not given) | inconclusive: 20 µM [inhibitor, partial curve, poor fit] | – |
